Assay results taken from US8889671B2, “Compounds and methods for treating bacterial infections” (AstraZeneca AB, priority 2013, dated 2014).

Assay: Mouse protein unbound fraction
Assay type: in vitro ADME
Conditions: mean of mouse protein unbound fraction in the range of 1 μM to 50 μM

SMILES: C[C@@H]1CN2c3c(cc4c(N5C(=O)OC[C@@H]5C)noc4c3F)CC3(C(=O)NC(=O)NC3=O)[C@H]2[C@H](C)O1 [Example 5, (2R,4S,4aS)-11-Fluoro-2,4-dimethyl-8-[(4S)-4-methyl-2-oxo-1,3-oxazolidin-3-yl]-1,2,4,4a-tetrahydro-2′H,6H-spiro[1,4-oxazino[4,3-a][1,2]oxazolo[4,5-g]quinoline-5,5′-pyrimidine]-2′,4′,6′(1′H,3′H)-trione]
- murine unbound fraction: 22.1%
- fraction unbound (plasma, read-out: murine unbound fraction): 0.221
